In US10117953B2, “Antibody drug conjugates” (Novartis AG, priority 2013, dated 2018):

What was measured:
[1] = target: T1, wildtype cKIT in NCI-H526 cells (Homo sapiens, UniProt P10721); test: cKIT degradation Western blot timecourse; assay type: cell-based
T1 construct: host or cells: NCI-H526
Experimental: 5×10^6 of GIST-T1 (kindly provided by Dr. Takahiro Taguchi, Kochi U., Japan) or NCI-H526 (ATCC CRL-5811) cells were seeded in growth media (DMEM, 10% FBS for GIST T-1 and RPMI, 10% FBS for NCI-H526) the night before at 37° C. with 5% CO2. Cells were then treated with 100 mM cycloheximide (CHX) (Cat#090M4009, Sigma-Aldrich, St. Louis, Mo.) in methionine free medium (GIBCO: DMEM, 21013-024; RPMI, A14517-01, Life Technologies, Carlsbad, Calif.). […] Cells were harvested at 1 hour, 4 hour, and 6 hour post treatment in 1 ml PBS. […] Lysates were then spun down for 40 mins at 12,000 rpm at 4C. Five μg of each sample was boiled for 10 min at 75° C. and loaded on a 15-well NuPAGEO 4-12% Bis-Tris gel (NP0323BOX Life Technologies, Carlsbad, Calif.). After protein transfer to membrane blots, membranes were blocked in TBST-5% milk at room temperature for 1 hour and then probed with anti cKIT antibody (Cell Signaling Technology Cat#3074, Beverly, Mass.) overnight at 4° C. Blots were washed in TBST (4×5 mins) the next day. The blot was incubated in the secondary antibody (goat-anti rabbit-HRP 1:30,000, Santa Cruz Biotechnologies, Dallas, Tex.) for 1 hour at room temperature. The blot was washed in TBST (4×5 mins) and developed. The primary antibodies used for Western blotting were α-cKIT (Cell Signaling Technology Cat#3074) and GAPDH (Cell Signaling Technology Cat#3683). […]

[2] = system: Mo7e cells (SCF-dependent); test: Mo7e proliferation assay in presence of SCF; assay type: cell-based, human; conditions: 10 ng/ml SCF, 5 days
Experimental: To evaluate the potential antagonistic properties of the naked antibodies and the ability of the antibody drug conjugates (ADCs) to inhibit the proliferation of a cKIT-expressing cell line, MO7e (DSMZ, Catalog # ACC-104, Braunschweig, Del.) were grown in the presence or absence of cKIT ligand, Stem Cell Factor (SCF), for survival. MO7e cells were grown in either 10 ng/ml human granulocyte-macrophage colony-stimulating factor GM-CSF (R&D Systems Cat#215-GM, Minneapolis, Minn.) or 10 ng/ml human Stem Cell Factor SCF (R&D Systems Cat#255-SC) prior to seeding in 96 well plates (Costar Cat #3904, Corning, Tewksbury, Mass.) at 5000 cells/well in 100 μl dilution medium. A duplicate plate was generated for a day 0 measurement and all plates were incubated in a tissue culture incubator at 37° C. with 5% CO2 overnight. […] Assay plates were shaken gently for 20 min and the resulting luminescence intensity was measured using a Perkin Elmer 1450 Microbeta TriLux® plate reader (Perkin Elmer, Waltham, Mass.). […] Following this incubation period, relative cell viability was determined via the addition of Cell titer Glo reagent as described above. The effect of the ADCs on cell proliferation was calculated using the average of the duplicates as follows: (% Inhibition=(ADC or Ab treated)/(untreated)*100) The % inhibition data was fitted to a 4-parameter logistic equation and IC50 values were determined.

[3] = system: GIST T1 subcutaneous tumor xenograft; test: Efficacy of related ADCs at low effective dose; assay type: in vivo, mouse; conditions: single i.v. dose 0.625 mg/kg
Experimental: The control IgG1-MCC-DM1 even at the high dose of 10 mg/kg was not active.

[4] = system: NCI-H1048 small cell lung cancer xenograft; test: Anti-cKIT ADC efficacy study, single 2 mg/kg dose; assay type: in vivo, mouse; conditions: single intravenous dose 2 mg/kg
Experimental: All treated groups received a single intravenous dose of 2 mg/kg.

[5] = system: GIST T1 subcutaneous tumor xenograft; test: Efficacy of mouse cross-reactive 20376-MCC-DM1; assay type: in vivo; conditions: single i.v. dose 0.625 mg/kg

T1 sequence (P10721 26-976): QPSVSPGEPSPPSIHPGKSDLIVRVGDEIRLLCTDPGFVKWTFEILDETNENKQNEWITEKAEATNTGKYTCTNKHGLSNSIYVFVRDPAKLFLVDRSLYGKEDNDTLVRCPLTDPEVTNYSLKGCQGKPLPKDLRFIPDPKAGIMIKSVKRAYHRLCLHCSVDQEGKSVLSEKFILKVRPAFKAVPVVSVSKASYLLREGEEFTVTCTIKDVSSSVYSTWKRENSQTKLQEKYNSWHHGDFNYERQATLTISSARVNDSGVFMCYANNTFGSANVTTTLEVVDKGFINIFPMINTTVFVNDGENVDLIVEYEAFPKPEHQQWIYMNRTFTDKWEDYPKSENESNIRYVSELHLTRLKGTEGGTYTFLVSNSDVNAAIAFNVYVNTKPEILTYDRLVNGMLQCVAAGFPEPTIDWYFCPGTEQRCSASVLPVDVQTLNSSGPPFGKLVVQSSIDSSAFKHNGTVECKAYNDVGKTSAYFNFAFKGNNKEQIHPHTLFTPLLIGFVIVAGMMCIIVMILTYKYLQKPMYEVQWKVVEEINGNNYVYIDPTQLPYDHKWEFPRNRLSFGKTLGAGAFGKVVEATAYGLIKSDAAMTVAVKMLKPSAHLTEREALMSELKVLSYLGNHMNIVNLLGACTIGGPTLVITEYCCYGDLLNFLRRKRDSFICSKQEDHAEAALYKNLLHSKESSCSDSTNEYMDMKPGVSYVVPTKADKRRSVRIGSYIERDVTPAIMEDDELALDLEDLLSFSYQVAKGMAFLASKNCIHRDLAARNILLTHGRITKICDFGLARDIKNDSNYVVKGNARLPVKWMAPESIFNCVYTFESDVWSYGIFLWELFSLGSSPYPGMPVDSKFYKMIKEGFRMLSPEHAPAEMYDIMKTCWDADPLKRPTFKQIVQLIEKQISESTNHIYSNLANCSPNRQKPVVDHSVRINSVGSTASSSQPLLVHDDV

B1: NEG085-MCC-DM1: antibody NEG085 conjugated to DM1 via SMCC linker (conjugate)
heavy: EVQLVESGGGLVQPGGSLRLSCAASGFAFSGYYMAWVRQAPGKGLEWVANINYPGSSTYYLDSVKGRFTISRDNAKNSLYLQMNSLRAEDTAVYYCARGDYYGTTYWYFDVWGQGTTVTVSSASTKGPSVFPLAPSSKSTSGGTAALGCLVKDYFPEPVTVSWNSGALTSGVHTFPAVLQSSGLYSLSSVVTVPSSSLGTQTYICNVNHKPSNTKVDKRV[human IgG1 Fc omitted here]
light: DIQMTQSPSSLSASVGDRVTITCRASQSISSYLNWYQQKPGKAPKLLIYYTSRLQSGVPSRFSGSGSGTDFTLTISSLQPEDFATYYCQQGRRLWSFGGGTKVEIKRTVAAPSVFIFPPSDEQLKSGTASVVCLLNNFYPREAKVQWKVDNALQSGNSQESVTEQDSKDSTYSLSSTLTLSKADYEKHKVYACEVTHQGLSSPVTKSFNRGEC
[1]; 5 μg/ml, after 6 hours
  cKIT receptor level (degradation): very low/undetectable
[1]; ADC alone vs ADC with rh-SCF
  blocking of SCF binding to the cKIT receptor: does not block the cKIT receptor from binding SCF
[2]
  inhibition of cell proliferation: inhibits cell proliferation of M07e cells at a low concentration
[3]
  antitumor activity (tumor volume): smallest tumor volumes in the tightest range
[4]
  AT/AC: 9%
  antitumor activity (tumor volume): not statistically different from the vehicle
[5]
  antitumor activity (tumor volume): hint of efficacy, although also not statistically significant
